# Source: PubChem BioAssay AID1030 (National Center for Advancing Translational Sciences (NCATS), 2008)
# In all, about 220,000 compounds went through this assay and about 16,000 (7.3%) were called active. Inconclusive results, whose numbers are uncertain, are shown with a selection of clear calls. The call rests on the fitted dose curve; in most records, active means well fitted inhibition curve with a large enough effect (not every such curve was filed as active); inconclusive means small, poorly fitted or top-dose-only effect, or another doubt; inactive means no such curve, though single readings can be large or run the other way. Potencies of inconclusive entries are left out as doubtful fits.
# Target: Aldehyde dehydrogenase 1A1 (Homo sapiens) (UniProt P00352)
# Test: qHTS Assay for Inhibitors of Aldehyde Dehydrogenase 1 (ALDH1A1);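 on activity, negative = inhibition: plate controls were no enzyme wells and a reference inhibitor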
# Conditions: Purified ALDH1A1, NADH fluorescence, propionaldehyde substrate; series mostly up to 75.3 µM; activity, negative = inhibition: at the top concentration
# Potency means the concentration at half of the fitted maximal effect; tags describe the fitted curve by direction and shape.
# Chain of UniProt P00352 (P00352 whole entry, looked up): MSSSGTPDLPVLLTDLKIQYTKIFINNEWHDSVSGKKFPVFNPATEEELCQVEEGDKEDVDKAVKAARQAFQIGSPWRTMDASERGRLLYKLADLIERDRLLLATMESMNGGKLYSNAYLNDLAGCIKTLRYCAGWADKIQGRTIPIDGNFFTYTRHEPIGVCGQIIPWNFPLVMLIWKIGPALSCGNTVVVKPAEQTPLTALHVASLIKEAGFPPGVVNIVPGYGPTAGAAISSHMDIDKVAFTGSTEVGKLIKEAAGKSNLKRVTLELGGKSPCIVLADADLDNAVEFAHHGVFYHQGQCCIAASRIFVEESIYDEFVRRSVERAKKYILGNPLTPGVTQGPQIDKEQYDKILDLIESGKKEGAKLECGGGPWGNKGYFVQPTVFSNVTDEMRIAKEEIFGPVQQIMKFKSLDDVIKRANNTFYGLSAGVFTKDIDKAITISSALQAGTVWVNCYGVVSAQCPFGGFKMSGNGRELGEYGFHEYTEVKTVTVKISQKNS
SMILES,"activity, negative = inhibition",Potency
CCCNC(=O)OC[C@@H]1O[C@H](CCON=C(C)C)C=C[C@@H]1Oc1ccc(OC)cc1,inactive: 15.8% [at 13.5 µM],
CCc1ccc(NS(=O)(=O)c2ccc3[nH]cc(C(=O)N4CCCCC4)c(=O)c3c2)cc1,,"inconclusive [inhibitor, partial curve]"
COc1c(F)c(F)c(C(=O)O)c(Nc2cccc(C)c2)c1F,inactive: -14.4%,
CCCOc1ccc(NC(=O)C2CC(=O)N/C(=N/N=C(C)/C=C/c3ccc(N(C)C)cc3)S2)cc1 (stereo not given),,"inconclusive [inhibitor, single point]"
COc1cccc(Cn2c(=O)c(C)nc3cnc(OC)nc32)c1,inactive: -3.18%,
COc1ccc(-c2csc3nc(-c4ccccc4F)oc(=O)c23)cc1OC,,"inconclusive [inhibitor, partial curve]"
CCCCOC1(c2ccccc2)NC(=S)NN=C1c1ccccc1 (stereo not given),,active: 0.562 µM
CN1N=C(c2ccc(Cl)cc2)CC(c2ccc(Cl)cc2)C1=O (stereo not given),,"inconclusive [inhibitor, partial curve]"
O=C(CCC1N=C2c3ccccc3N=C(SCC(=O)NCc3ccco3)N2C1=O)NCc1ccco1 (stereo not given),,"inconclusive [inhibitor, partial curve]"
COC(=O)c1ccccc1NC(=O)CN1CCC(NC(=O)c2ccccc2C)CC1,,active: 20 µM
O=C(COC(=O)c1cc(S(=O)(=O)N2CCCCC2)ccc1N1CCOCC1)NCCc1ccc(F)cc1,,"inconclusive [inhibitor, partial curve]"
CCCN(CC(=O)Nc1ccccc1C)C(=O)CCl,,"inconclusive [inhibitor, single point]"
COc1ccccc1C1CCN(c2ccc([N+](=O)[O-])c(OC)c2)CC1,inactive: 0.678%,
O=C(CCCNc1ccccc1)N/N=C/c1cccs1,inactive: -3.35%,
Cn1ncc(Cl)c1C(=O)Nc1ccc(Cl)cn1,inactive: 3.07%,
CCOC(=O)CC1C(=O)NCCN1C(=S)Nc1ccccc1 (stereo not given),,"inconclusive [inhibitor, single point]"
O=C(CSc1nnc(CNC(=O)c2ccco2)o1)Nc1nc2ccccc2s1,inactive: -9.12%,
CCCCC/C=C\C\C=C/C=C/C=C/[C@@H](SC[C@H](N)C(=O)O)[C@@H](O)CCCC(=O)O,inactive: 9.98%,
Cc1cc(C)c(C(=O)OCC(=O)NCc2cccs2)c(C)c1,,"inconclusive [inhibitor, single point]"
O=C(CN1c2cccc3cccc(c23)S1(=O)=O)N1CCOCC1,,"inconclusive [inhibitor, single point]"
COc1ccc(-n2c(SC(CN3CCCCC3)CN3CCCC3=O)nc3ccccc3c2=O)cc1 (stereo not given),,"inconclusive [inhibitor, partial curve]"
COc1ccc(CCN2C(=O)C3CC=C(C)CC3C2=O)cc1OC (stereo not given),,active: 17.8 µM
C/C(N)=C(/C#N)C(=O)COC(=O)CCC1CCCC1,,"inconclusive [inhibitor, partial curve]"
O=[N+]([O-])c1cccc(CSc2ncnc3ccccc23)c1,,active: 22.4 µM
COC(=O)c1cc(OC)nc(OC)c1,,"inconclusive [inhibitor, single point]"

SMILES,"activity, negative = inhibition",Potency
Cc1nnc(NC(=O)CSc2nnc(CCc3nc4ccccc4[nH]3)n2C)s1,,"inconclusive [inhibitor, single point]"
CCOc1ccc(Cl)cc1/C=N/NC(N)=O,inactive: -2.85%,
Cc1cccc(C)c1NC(=O)CSCCO,inactive: 4.92%,
Oc1[nH]c2ccccc2c1C=Nc1ccc2c(c1)OCO2,,"inconclusive [inhibitor, full curve]"
CCOc1ccc(NC(=O)/C(C#N)=C/c2ccc(N3CCCC3)c(C)c2)cc1,,"inconclusive [inhibitor, partial curve]"
Cc1cnc(C(=O)Nc2ccc(N3CCCCC3)cc2)cn1,inactive: 2.28%,
NS(=O)(=O)c1ccc(NC(=S)N2CCN(S(=O)(=O)c3ccc(F)cc3)CC2)cc1,,"inconclusive [inhibitor, single point]"
COc1ccc(S(=O)(=O)N(CCc2ccccc2)CC(=O)O)cc1Cl,inactive: -4.03%,
CC(C)NC(=O)CN1CCN(C(=O)CCl)CC1,,active: 3.16 µM
O=c1c2ccccc2sc2nc(C3CCCCC3)n(Cc3ccco3)c(=O)c12,,active: 1.41 µM
CCN(CC)C(=O)C1CCCN(c2ccc([N+](=O)[O-])cc2)C1 (stereo not given),,active: 20 µM
O=C(O)CCC(=O)N1CCc2cc(S(=O)(=O)NCc3cccs3)ccc21,inactive: 4.35%,
CCC1CCCCN1C(=O)COc1cc(=O)n(C)c2ccccc12 (stereo not given),,"inconclusive [inhibitor, single point]"
CC(C)CC(=O)/C=C/n1c(=S)oc2ccccc21,,"inconclusive [inhibitor, partial curve]"
CCC1(CC)N=C(c2ccccc2)C(=S)N1,inactive: -3.3%,
CCC(=O)N1N=C(c2c(-c3ccccc3)c3cc(Cl)ccc3[nH]c2=O)CC1c1ccco1 (stereo not given),,"inconclusive [inhibitor, partial curve]"
COc1ccc2[nH]c(=O)c(CN(Cc3cccnc3)C(=S)NCC3CCCO3)cc2c1 (stereo not given),,"inconclusive [inhibitor, partial curve]"
Cc1ccc(N=Nc2c(O)ccc3n[nH]nc23)cc1,,"inconclusive [inhibitor, single point]"
COc1ccccc1S(=O)(=O)Nc1cc(S(=O)(=O)N2CCCCC2)ccc1N1CCOCC1,,active: 12.6 µM
Cc1cc(=O)oc2c1c(C)nn2-c1ccc(Cl)cc1,inactive: 12.1%,
COc1ccccc1NC(=O)CN1CC(=O)Nc2ccccc21,,active: 3.55 µM
Cn1nnc(NC(=S)NC(=O)c2ccc(-c3ccc(Br)cc3)o2)n1,,active: 7.94 µM
CN(C)c1nc(/C=C(\C#N)C(N)=O)c(Cl)n1-c1ccc(F)cc1,inactive: -1.54%,
COc1ccc(Cn2nnnc2C(c2cccs2)N2CCCCCC2)cc1 (stereo not given),,active: 12.6 µM
CNC(=S)NNC(=O)c1ccccc1F,,"inconclusive [inhibitor, single point]"
